From PubChem BioAssay AID1508623 (National Center for Advancing Translational Sciences (NCATS), 2021)
Among all 48,000 compounds or so, about 450 (0.94%) were called active. Inconclusive results (about 19%) are left out. The call rests on the fitted dose curve; in most records, active means well fitted inhibition curve with a large enough effect; inconclusive means small, poorly fitted or top-dose-only effect; inactive means no such curve, though single readings can be large or run the other way. Some of the results follow.

Assay: Primary qHTS for Identification of Small Molecule Inhibitors of Huntingtin Promoter Activity; further: nearly all actives have a fitted effect of over 50% in size
Details: HEK293 HTT promoter firefly luciferase reporter (activity 0% = vehicle and -100% = no light), 24 h; series mostly up to 57.5 µM; activity change, negative = inhibition: at the top concentration
Source text: Assay Provider: Russell L. Margolis M.D.
Department Neurology, Johns Hopkins University School of Medicine, Baltimore, MD
Huntington's Disease (HD) is a neurodegenerative disorder caused by a CAG repeat expansion in exon 1 of huntingtin (HTT). While there are currently no disease-modifying treatments for HD, recent efforts have focused on development of nucleotide-based therapeutics to lower HTT expression. As an alternative to siRNA or oligonucleotide methods, we hypothesized that suppression of HTT expression might be accomplished by small molecules that either (1) directly decrease HTT expression by suppressing HTT promoter activity or (2) indirectly decrease HTT expression by increasing the promoter activity of HTT-AS, the gene antisense to HTT that appears to inhibit expression of HTT.
We developed and employed a high throughput screen for modifiers of HTT and HTT-AS promoter activity using luminescent reporter HEK293 cells; of the 52,041 compounds tested, we identified 898 replicable hits. We used a rigorous stepwise approach to assess compound toxicity and the capacity of the compounds to specifically lower huntingtin protein in 5 different cell lines, including HEK293 cells, HD lymphoblastoid cells, mouse primary neurons, HD iPSCs differentiated into cortical-like neurons, and HD hESCs. We found no compounds which were able to lower huntingtin without lowering cell viability in all assays, though the potential efficacy of a few compounds at non-toxic doses could not be excluded.
SEQUENCE No. (1, 2, 3, etc.); […] (e.g., Cells, Incubation, Reagent, etc.); VALUE and DESCRIPTION.
1; Reagent; 4 uL; 2,500 Hek293 luciferase reporter cells per wells
3; Compound; 23 nL; Control inhibitor / compound library
5; Reagent; 2.5 uL; Firefly Luc reagent; Dual-Glo Luciferase Reporter Assay System (Promega)
6; Time; 10 min; room temperature incubation
7; Detection; Luminescence; FLuc
NOTES (numbers refer to sequence above)
1; High-throughput screening, measuring luminescence from a Hek293 luciferase reporter, was performed in 1,536 well white-walled tissue-culture treated plates. 2,500 cells were plated in 4 µL of Opti-MEM per well using a Multidrop Combi Reagent Dispenser (ThermoFisher).
2; Assay plates were cultured for 24 hours.
3; Control inhibitor (PTC124; final concentration of 50 uM) and compound library (at final concentrations of 460 nM - 57.5 uM) were added to the assay plate using the Kalypsis Pintool Robotic System equipped with 1536 pinheads.
4; Cells were then incubated for 24 hours at 37 degrees C prior to luminescence measurements.
5; In all cases, luminescence was measured using the Dual-Glo Luciferase Reporter Assay System (Promega) following the manufacturer's instructions.
6; Room temperature incubation.
7; Luminescence signal was obtained using the PerkinElmer ViewLux plate reader. Results were normalized to vehicle control (0% activity) and zero RLU (-100% activity).

Activity change, negative = inhibition, inactive:
Cc1ccc(-c2c3c(=O)n(C)c(=O)n(C)c3c3c(C(F)(F)F)nc4ccccc4n23)cc1 -24.7%
CCS(=O)(=O)N1CC(=O)N(c2cccc(C)c2C)C(C)(C(=O)NC2CCCCC2)C1 (centres undefined) 3.89%
CCOC(=O)c1[nH]c(C)c(CCC(=O)Nc2ccc(N(CC)CC)cc2C)c1C -11.4%
CCc1ccc(CNC(=O)CCN2C(=O)COc3ccccc32)cc1 -17.9%
[O-][n+]1cccc(CO)c1 9.32%
COc1cc(NC(=O)Cn2c(C)cc3ccccc3c2=O)cc(OC)c1OC -2.37%
COc1cc(OC)cc(C(=O)Nc2c(C(=O)Nc3ccc(F)cc3)oc3ccccc23)c1 3.93%
COC(=O)c1cc2oc(C)cc2n1CC(=O)Nc1ccc(C)cc1C -5.9%
O=C(Cn1c(=O)n(Cc2ccccc2)c(=O)c2oc3ccccc3c21)Nc1ccc(Cl)cc1 -2.12%
Cc1ccc(/C=C/c2onc(C)c2S(=O)(=O)N2CCC(C(=O)N3CCOc4ccccc43)CC2)cc1 -26.2%
Oc1ccc(Cl)cc1Nc1nc2ccccc2n2cnnc12 -14%
CCOC(=O)c1ccc(NC(=O)Cc2ccc(-n3c(CC)nc4cccnc43)cc2)cc1 -13.1%
NC(=O)c1cc(S(=O)(=O)N2CCCCC2)cs1 -9.23%
O=C(CCS(=O)(=O)c1ccc2c(c1)NC(=O)CO2)Nc1cccc(C(F)(F)F)c1 -4.86%
CCNC(=O)CC1C(=O)N(c2ccc(C)cc2)C(=O)N1Cc1ccc(C)cc1 (centres undefined) -10.9%
COc1ccc(NC(=O)Cn2nnc(C(=O)NCc3ccccc3Cl)c2N)cc1Cl -29.2%
CCC(=C(c1ccccc1)c1ccc(OCCN(C)C)cc1)c1ccccc1 -16.1%
CCn1cc(S(=O)(=O)c2cc(C)cc(C)c2)c(=O)c2cc(F)c(N3CCC(C)CC3)cc21 -20.5%
CCOc1ccc(N(C(=O)c2ccc(C)cc2)S(=O)(=O)c2ccc3c(c2)n(C)c(=O)n3C)cc1 -0.418%
Cc1ccc2cccc(NC(=O)c3ccc(-c4cc(Cl)ccc4Cl)o3)c2n1 -18.3%
O=C(NCc1ccc(Cl)cc1)c1cc2ccccc2o1 -8.25%
Cc1ccc(C)n1-c1nnc(N2CCCC(C(=O)NCc3ccc(F)cc3)C2)s1 (centres undefined) -15.3%
CCN(CC)C(=O)Cn1c(=O)n(CCCCCC(=O)NCc2ccccc2Cl)c(=O)c2sccc21 -9.13%
COc1ccc(OC)c(NC(=O)c2ccc3c(c2)c(C)c(C)n3Cc2ccc(F)cc2)c1 -10.5%
O=C(NCc1cccc(Br)c1)c1cccn1-c1nnc(N2CCCCC2)s1 -44.3%
Cc1ccc(NC(=O)Cn2c(C)cc(C)c(C#N)c2=O)cc1F 11.2%
Cc1cc(C)c(/C=C/c2onc(C)c2S(=O)(=O)N2CCC(C(=O)N3CCN(c4ccc(Cl)cc4)CC3)CC2)c(C)c1 -9.09%
Cc1ccc(C(=O)Nc2nc3n(n2)C(c2ccccc2)C=C(c2ccccc2)N3)cc1 (centres undefined) -17.1%
COc1ccc(-c2nc3ccccc3s2)cc1NC(=O)c1cc2ccccc2o1 6.13%
NC(=O)OCC(COC(N)=O)c1ccccc1
CN1CCN(C(c2cccc(Br)c2)c2sc3nc(-c4ccco4)nn3c2O)CC1 (centres undefined) -1.41%
CCC(=O)N1CCc2cc(Br)cc(S(=O)(=O)CCC(=O)NCCc3ccccc3Cl)c21 -3.62%
Cc1ccnc(NS(=O)(=O)c2ccc(N)cc2)n1 0.042%
CCOc1ccc(-c2nonc2NC(=O)c2ccc(C)cc2)cc1OCC -3.35%
O=C(Cc1csc2ccccc12)NCc1ccccc1F 26.2%
CCOc1ccc(-c2nc(SCC(=O)Nc3ccc4c(c3)OCCO4)c(-c3ccc(F)cc3)[nH]2)cc1 -19.6%
CCC(=O)OCCCNc1nc(-c2ccc(Cl)cc2)nc2ccccc12 -28.6%
CCc1cccc(-n2nnc(-c3nc(-c4cccs4)no3)c2N)c1 54.2%
CN[C@H]1CCc2cc(OC)c(OC)c(OC)c2-c2ccc(OC)c(=O)cc21 -25.3%
Clc1ccc2nc(-c3ccc(Br)o3)c(Nc3ccc4c(c3)OCCO4)n2c1 32.1%
COc1cccc(OC)c1C(=O)Nc1cccc(-c2nc3cc(C)cc(C)c3o2)c1 -16.9%
COc1ccc(S(=O)(=O)N(C)Cc2nc(-c3cccc(C)c3)no2)cc1 -21.4%
O=C(CSc1nc2ccsc2c(=O)n1Cc1ccccc1F)NCc1ccccc1 -6.47%
CCc1ccc(NC(=O)N(Cc2ccc(C)cc2)Cc2cccn2-c2nnc(N3CCCC3=O)s2)cc1 -11.9%
CCOC(=O)c1c(C)c(-c2ccccc2)n(CC(=O)NCCc2ccc(C)cc2)c1C -3.89%
CCOC(=O)c1ccc(NC(=O)c2cc(=O)c3cc(CC)ccc3o2)cc1 24.9% [at 11.5 µM]
COc1ccc(-c2cc(C(F)(F)F)nc(SCC(=O)NCCc3ccc(OC)c(OC)c3)n2)cc1 -4.5%
Cc1ccc(NC(=O)N2CCC(CN3CCC(C)CC3)CC2)cc1F 14.7%
CCCc1cc(=O)n2[nH]c(-c3ccc(C)cc3)nc2n1 32.4%
Cc1ccc(NC(=O)C2CCCN(c3nnc(-n4c(C)ccc4C)s3)C2)cc1Cl (centres undefined) -5.23%
COc1cccc(CNC(=O)C(NS(=O)(=O)c2ccc3nc(C)sc3c2)C(C)C)c1 (centres undefined) -3.39%
Cc1cccc(NC(=O)CSc2nnc(C)c(=O)[nH]2)c1 -8.25%
CCS(=O)(=O)NCC(c1ccco1)N1CCN(c2ccc(OC)cc2)CC1 (centres undefined) -10.2%
Cc1ccccc1CN1c2ccccc2-c2nc(SCC(=O)NCCc3ccccc3)ncc2S1(=O)=O -9.58%
CCN(CC)c1ccc(-n2nc3cc(C)c(NC(=O)c4ccccc4F)cc3n2)cc1 -2.93%
Cc1cccc(NC(c2cccc(F)c2)c2ccc3ccc(C)nc3c2O)n1 (centres undefined) -2.27%
NC(=O)CSc1nc2ccc(NC(=O)COc3ccccc3)cc2s1 -7.93%
NCCNCCNCCN 3.08%
CCCn1c(=N)c(C(=O)NC2CCCC2)cc2c(=O)n3cc(C)ccc3nc21 4.38%
CC1CCC(NC(=O)c2ccc3c(c2)N(Cc2ccccc2F)C(=O)c2ccccc2S3)CC1 (centres undefined) 28.4%
c1ccc(-c2cc(-c3ccccc3)c3c(n2)-c2ccccc2OC3)cc1 -8.86%
Cc1nc2ccc(S(=O)(=O)NC(C(=O)NCc3ccccc3Cl)C(C)C)cc2s1 (centres undefined) -7.14%
Cc1ccc2c(CC(=O)N3CCN(c4cccc(Cl)c4)CC3)coc2c1 -3.88%
CCCCNc1ccc(-c2nc(-c3ccccc3)no2)cc1[N+](=O)[O-] 11.2%
CSc1ncc(Cl)c(C(=O)NCc2ccc(C)cc2)n1 -15.9%
COc1ccc(OC)c(CNS(=O)(=O)c2c(C(=O)N3CCC(C)CC3)c(C)n(C)c2C)c1 -13.1%
Cc1cc(C)cc(NC(=O)Cn2nnc(C(=O)NCCc3ccccc3)c2N)c1 -3.78%
CCOc1ccc(C(=O)NCCc2sc(-c3ccc(C)cc3)nc2C)cc1 -19.3%
COc1cc(Nc2nc(SCc3ccccc3F)nc3ccccc23)cc(OC)c1 -24.4%
Cc1ccc(CCNC(=O)c2ccc(CS(=O)(=O)c3ccc(Br)cc3)o2)cc1 -12.2%
CCOc1ccccc1NC(=O)CSc1c(C)cnc2c1c(=O)n(C)c(=O)n2C -17.8%
CC1=C(C(=O)Nc2c(C)cc(C)cc2C)C2(CCN(C(C)C)CC2)OC1=O -22.5%
CC1=C(C(=O)Nc2cccc(C)c2C)C2(CCCCC2)OC1=O -12.9%
COc1ccc(CCNC(=O)c2cnc3sc(N4CCCCCC4)nn3c2=O)cc1OC 3.24%
CCOCCCNC(=O)C(c1ccc(OC)cc1)N(Cc1cccs1)C(=O)c1ccccc1O (centres undefined) -22.1%
COc1ccccc1N1CCN(CCCNC(=O)c2cnn(-c3ccccc3Cl)c2C2CCN(C(=O)OC(C)(C)C)CC2)CC1 -13.7%
CC(C)NC(=O)CSc1nc2ccccc2nc1N1CCCCC1 -11%
COc1ccc(C(c2c(C)n(C)n(-c3ccccc3)c2=O)c2c(C)n(C)n(-c3ccccc3)c2=O)cc1O -14.4%
Cc1ccc(N2CC(NC(=O)Cc3cccs3)CC2=O)cc1 (centres undefined) -12.8%
COc1cc(OC)c(NC(=O)Nc2nnc(N(C)C3CCCCC3)s2)cc1Cl 5.48%
CCOc1cccc2sc(N(Cc3cccnc3)C(=O)c3ccco3)nc12 -15.4%
COc1ccc(-c2cc3c(=O)n(CC(=O)Nc4ccccc4C(F)(F)F)ccn3n2)cc1OC -6.45%
CC(=O)c1ccc(NC(=O)CN(C)S(=O)(=O)c2cc3c(cc2C)NC(=O)CO3)cc1 -4.47%
CC1CCN(CC(=O)N2CCCc3c2c(=O)oc2ccc(OCc4ccccc4)cc32)CC1 -19.1%
Cc1c(C(=O)Nc2ccc(Br)cc2F)oc2ccc(S(=O)(=O)N3CCCCC3)cc12 -22.2%
CC1(C(=O)Nc2cccc(C(F)(F)F)c2)Cc2ccccc2C(=O)O1 (centres undefined) -21.8%
Cc1nc(N2CCOCC2)c2c(C(=O)N3CCN(c4cc(Cl)ccc4C)CC3)c(C)oc2n1 4.16%
O=C(CN1C(=O)C2CCCCN2c2ccc(C(=O)N3CCCC3)cc21)NCc1ccc(F)cc1 (centres undefined) -11.6%
CCOc1ccccc1CNc1ncnc2onc(-c3ccc(F)cc3)c12 -17.4%
CCCNC(=O)CN1C(=O)COc2ccc(S(=O)(=O)N3CCCC3)cc21 -13.6%
CCN1CCC(N(Cc2ccc(F)cc2)C(=O)Nc2cc(C)ccc2C)CC1 -10.2%
COc1ccc(-n2cc(C(=O)NCCc3ccc(C)cc3)c3ccccc3c2=O)cc1 -13.6%
COC(=O)c1ccc(C2CC(=O)Nc3c2c(C)nn3-c2nc(C)cc(C)n2)cc1 (centres undefined) -18.3%
O=C(Nc1ccc(S(=O)(=O)Nc2ncccn2)cc1)c1cccc(Cl)c1 -0.368%
CCn1c(SC)nc2c([nH]c3ccccc32)c1=O -13.5%
O=C(Cn1ccc2cc(S(=O)(=O)N3CCCC3)ccc21)NCc1ccc(Cl)cc1 -22.5%
Cc1cc(C)cc(NC(=O)CC(C)n2nc(C)cc2C)c1 (centres undefined) -16%
COc1cc(NC(=O)Cn2c(=O)n(Cc3ccccc3)c(=O)c3oc4ccccc4c32)cc(OC)c1 -17.5%
O=C(Nc1ccc(F)cc1)C1CCN(c2nc3ccccc3nc2C(F)(F)F)CC1 3.44%
